Experimental data taken from patent US20260041674A1, “METHODS AND COMPOSITIONS FOR MODULATING THE ACTIVITY OF A DIMERIZING AGENT REGULATED IMMUNOMODULATORY COMPLEX” (Seattle Children’s Hospital d/b/a Seattle Children’s …, priority 2021, published 2026).

Key:
[1] = clinical; conditions: human, blood, po, 0.75 mg
[2] = Red blood cell partitioning in NSG mouse whole blood (K2EDTA); assay type: in vitro ADME
[3] = patients; cited from earlier work
[4] = Whole blood rapamycin concentration in xenografted and treated mice
[5] = Protein binding in 10% NSG mouse plasma (K2EDTA); assay type: in vitro ADME; conditions: Rapamycin (2 mM); for fraction unbound at 2 mM: NSG, mouse
[6] = Plasma protein binding, human plasma (K2EDTA); assay type: in vitro ADME
[7] = cited from earlier work
[8] = for trough levels vs target range […]-3 ng/mL: 3 mg
[9] = Rapamycin pharmacokinetics in tumor-naive mice (LC MS/MS whole blood assay); assay type: in vivo; conditions: for Cmin / Tmin / Tmax / half-life / AUC / concentration at 48 h / Cmax: whole blood, IP 3 times weekly; for Tmax / half-life / AUC / concentration at 48 h / Cmax: mouse, ip; for AUC: read-out: AUC-T0-48; for concentration at 48 h: read-out: C48 h
Protocol: (J Chromatogr B Biomed Sci Appl, 1998 Nov. 6; 718(2)251-7). […] Upper limit of quantitation (ULOQ=200 ng/mL) and lower limit of quantitation (LLOQ=1 ng/mL) are indicated.

[10] = Plasma protein binding, NSG mouse plasma (K2EDTA); assay type: in vitro ADME
[11] = system: plasma protein; assay: Plasma protein binding, NSG mouse plasma (K2EDTA); assay type: in vitro ADME; conditions: NSG, mouse, plasma (K2EDTA); mice
[12] = Plasma protein binding, CD-1 mouse plasma (K2EDTA); assay type: in vitro ADME
[13] = in vivo; conditions: mouse, whole blood, intraperitoneal, 0.01 mg/kg
[14] = Rapamycin (2 mM), human plasma (K2EDTA)
[15] = mice, 0.02 mg/kg, analysis day 1
[16] = mice, 0.02 mg/kg, analysis day 19
[17] = mice, 0.05 mg/kg, analysis day 1
[18] = mice, 0.05 mg/kg, analysis day 19
[19] = mice, 0.1 mg/kg, analysis day 1
[20] = mice, 0.1 mg/kg, analysis day 19
[21] = 0.02 mg/kg, mice, 0.02 mg/kg, analysis day 1
[22] = 0.02 mg/kg, mice, 0.02 mg/kg, analysis day 19
[23] = 0.05 mg/kg, mice, 0.05 mg/kg, analysis day 1
[24] = 0.05 mg/kg, mice, 0.05 mg/kg, analysis day 19
[25] = 0.1 mg/kg, mice, 0.1 mg/kg, analysis day 1
[26] = 0.1 mg/kg, mice, 0.1 mg/kg, analysis day 19
[27] = Rapamycin (2 mM), NSG mouse plasma (undiluted, K2EDTA)
[28] = Rapamycin (2 mM), CD-1 mouse plasma (K2EDTA)

concentration at 2 h [1]: 1.5 to 3 ng/mL | concentration at 24 h [1]: < 1 ng/mL | Kp at 2 mM ([2]; NSG, mouse, whole blood (K2EDTA), read-out: Kp (RBC/PL)): 0.0628 | % Stability in Plasma ([2]; Rapamycin (2 mM), NSG mouse): 109.4% | Conc. in Spiked Plasma Conc. In Plasma from Spiked Blood ([2]; Rapamycin (2 mM), NSG mouse whole blood (K2EDTA)): 0.55 | whole blood rapamycin concentration ([4]; day 1, 2 hours following rapamycin injection): 0.916 ± 0.896 ng/mL | animals below the limit of quantitation ([4]; day 21, 24 hours after administration): 3 of 5 | fraction unbound at 2 mM ([5]; 10% plasma (diluted), estimated from 10% NSG mouse plasma, read-out: % Bound Estimated in Undiluted Plasma (converted)): 0.0073 | fraction unbound at 2 mM ([5]; 10% plasma (diluted), estimated from 10% NSG mouse plasma, read-out: % Free Estimated in Undiluted Plasma): 0.0073 | fraction unbound at 2 mM ([5]; 10% plasma (diluted), estimated from 10% NSG mouse plasma, read-out: Fu (Unbound Fraction) Estimated in Undiluted Plasma): 0.00728 | fraction unbound at 2 mM ([5]; 10% plasma (diluted, K2EDTA), 10% NSG mouse plasma (K2EDTA), read-out: % Free Measured in Diluted Plasma): 0.0682 | fraction unbound at 2 mM ([5]; 10% plasma (diluted, K2EDTA), 10% NSG mouse plasma (K2EDTA), read-out: Fu (unbound Fraction) Measured in Diluted Plasma): 0.0682 | % Protein Bound Measured in Diluted Plasma ([5]; 10% NSG mouse plasma (K2EDTA)): 93.18% | % Stability in Matrix (2.5 hours) ([5]; 10% NSG mouse plasma (K2EDTA)): 75.1% | % Protein Bound (Mean ± SD) [6, 14]: 93.90 ± 0.82% | % Protein Free (Mean ± SD) [6, 14]: 6.10 ± 8.20% | % Stability in Matrix (2.5 hours) [6, 14]: 76.07% | fraction unbound at 2 mM ([6]; human, plasma (K2EDTA), read-out: Fu Unbound Fraction (Mean ± SD)): 0.061 ± 0.0082 | trough levels vs target range […]-3 ng/mL ([8]; after eight administrations): above range | trough levels vs target range […]-3 ng/mL ([8]; following 2 administrations): within range | level post discontinuation ([8]; final measurement at day 28, discontinued at day 20): undetectable | Peak rapamycin concentration ([9]; mice, IP, 0.02 mg/kg): 10 ng/mL | Peak rapamycin concentration ([9]; mice, IP, 0.1 mg/kg): ~100 ng/mL | dose proportionality of blood concentrations ([9]; mice, IP, 0.02-0.1 mg/kg): generally dose proportional | Cmin [9, 15]: 1.13 ng/mL | Tmin [9, 15]: 48 h | Cmin [9, 16]: 0.80 ng/mL | Tmin [9, 16]: 96 h | Cmin [9, 17]: 3.68 ng/mL | Tmin [9, 17]: 48 h | Cmin [9, 18]: 1.35 ng/mL | Tmin [9, 18]: 72 h | Cmin [9, 19]: 5.49 ng/mL | Tmin [9, 19]: 48 h | Cmin [9, 20]: 3.22 ng/mL | Tmin [9, 20]: 96 h | Tmax [9, 21]: 2 h | half-life [9, 21]: 16 h | AUC [9, 21]: 226 ng·h/mL | concentration at 48 h [9, 21]: 1.16 ng/mL | Cmax [9, 22]: 19 ng/mL | Tmax [9, 22]: 2 h | half-life [9, 22]: 25.1 h | AUC [9, 22]: 318 ng·h/mL | concentration at 48 h [9, 22]: 2.27 ng/mL | Cmax [9, 23]: 44.9 ng/mL | Tmax [9, 23]: 1 h | half-life [9, 23]: 17.7 h | AUC [9, 23]: 666 ng·h/mL | concentration at 48 h [9, 23]: 3.68 ng/mL | Cmax [9, 24]: 34.9 ng/mL | Tmax [9, 24]: 2 h | AUC [9, 24]: 621 ng·h/mL | concentration at 48 h [9, 24]: 5.03 ng/mL | Cmax [9, 25]: 118 ng/mL | Tmax [9, 25]: 2 h | half-life [9, 25]: 13.8 h | AUC [9, 25]: 1480 ng·h/mL | concentration at 48 h [9, 25]: 5.49 ng/mL | Cmax [9, 26]: 68.3 ng/mL | Tmax [9, 26]: 2 h | half-life [9, 26]: 24.3 h | AUC [9, 26]: 1020 ng·h/mL | concentration at 48 h [9, 26]: 6.91 ng/mL | time of peak blood concentration after IP administration ([9]; tumor-naive mice, single and repeat administrations): ≤ 2 h | fraction unbound at 2 mM ([10]; NSG, mouse, undiluted plasma (K2EDTA), read-out: Fu Unbound Fraction (Mean ± SD)): 0.000553 ± 0.000341 | % Protein Bound (Mean ± SD) [10, 27]: 99.94 ± 0.03% | % Protein Free (Mean ± SD) [10, 27]: 0.06 ± 0.30% | % Stability in Matrix (2.5 hours) [10, 27]: 191.90% | fraction unbound [11]: < 0.01 | fraction unbound at 2 mM ([12]; CD-1, mouse, plasma (K2EDTA), read-out: Fu Unbound Fraction (Mean ± SD)): 0.0007 ± 0.0002 | % Protein Bound (Mean ± SD) [12, 28]: 99.93 ± 0.02% | % Protein Free (Mean ± SD) [12, 28]: 0.07 ± 0.20% | % Stability in Matrix (2.5 hours) [12, 28]: 104.23% | concentration at 2 h [13]: 2.65 ± 1.98 ng/mL
Structure (SMILES): CO[C@H]1C[C@@H]2CC[C@@H](C)[C@@](O)(O2)C(=O)C(=O)N2CCCC[C@H]2C(=O)O[C@H]([C@H](C)C[C@@H]2CC[C@@H](O)[C@H](OC)C2)CC(=O)[C@H](C)/C=C(\C)[C@@H](O)[C@@H](OC)C(=O)[C@H](C)C[C@H](C)/C=C/C=C/C=C/1C [Rapamycin, rapamycin]
Typical immunosuppressive trough concentrations [3]: 5 to 15 ng/mL | unbound Rapamycin concentrations associated with efficacy in mice ([4]; tumor-bearing immune-compromised mice injected with SC-DARIC33): below the unbound equivalent of the target trough concentration in pediatric patients | protein bound in human plasma ([7]; human plasma): 92% | rapamycin bound to RBCs ([7]; humans): 94.5% | rapamycin found in plasma ([7]; humans): 3.1%

Like-named read-outs stand apart in the source and are kept apart here.
